The values below come from the supplement of paper PMC11171410.

The subject of one test is SUDHL6 parental. Put plainly: estimated IC50 (cell viability); higher = less potent.
In test [1] the test system is SUDHL6 venetoclax-resistant. The description is as above.

Each structure is given as a SMILES string. Counter-ions that a name gives are not always drawn. Single values are uncertain, as repeats are few or missing. Bounds are passed on as bounds.
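Further: compound screen comparing venetoclax-resistant SUDHL6, derived by months of escalating venetoclax exposure, with its matched parental line, IC50 from one-site nonlinear dose–response fit, geometric mean for duplicated compounds.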

Turning to `CN1CCN(Cc2ccc(-c3cnc4[nH]cc(-c5ccc6[nH]ccc6c5)c4c3)cc2)CC1` [URMC-099], the “estimated IC50” value was 7.95 µM in the test with SUDHL6 parental and 4.05 µM in test [1].
On to `CC(C)(O)CNc1ncc(-c2ccnc(Nc3ccnc(Cl)c3)n2)c(CC2CC2)n1` [VPS34-IN1], for which the entries for the “estimated IC50” value (in the test on SUDHL6 parental; in test [1]) were 6.68 µM and 4.1 µM, respectively.
In the case of `Fc1ccc(C(OCCN2CCN(CCCc3ccccc3)CC2)c2ccc(F)cc2)cc1` [Vanoxerine dihydrochloride], the “estimated IC50” value in the test on SUDHL6 parental is 7.4 µM; in test [1] it was 2.1 µM.
`CC[C@]1(O)C[C@@H]2CN(CCc3c([nH]c4ccccc34)[C@@](C(=O)OC)(c3cc4c(cc3OC)N(C)[C@H]3[C@@](O)(C(=O)OC)[C@H](OC(C)=O)[C@]5(CC)C=CCN6CC[C@]43[C@@H]65)C2)C1` [Vinblastine sulfate]: the “estimated IC50” value in the test with SUDHL6 parental was 0.0075 µM; in test [1] it was 0.0015 µM.
On the same counts, the results for `CC[C@]1(O)C[C@H]2CN(CCc3c([nH]c4ccccc34)[C@@](C(=O)OC)(c3cc4c(cc3OC)N(C=O)[C@H]3[C@@](O)(C(=O)OC)[C@H](OC(C)=O)[C@]5(CC)C=CCN6CC[C@]43[C@@H]65)C2)C1` [Vincristine sulfate] are 0.008 µM and 0.002 µM.
On the same counts, the results for `CC[C@@H]1C(=O)N(C)c2cnc(Nc3ccc(C(=O)N[C@H]4CC[C@H](N5CCN(CC6CC6)CC5)CC4)cc3OC)nc2N1C(C)C` [Volasertib (BI 6727)] are 0.266 µM and 0.064 µM.
Regarding `O=C(CCCCCCC(=O)Nc1ccccc1)NO` [Vorinostat (SAHA, MK0683)], the “estimated IC50” value in the test with SUDHL6 parental is 3.74 µM; in test [1], 2.15 µM.
Turning to `c1cncc(CN2CCC(n3ncc4c(N5CCOCC5)nc(-c5ccc6[nH]ccc6c5)nc43)CC2)c1` [WAY-600], the “estimated IC50” value with SUDHL6 parental is 8.3 µM; in test [1], 2.2 µM.
The matching figures for `NCCCNCCS` [WR-1065 dihydrochloride]: 2.81 µM and 1.47 µM.
The matching figures for `COC(=O)Nc1ccc(-c2nc(N3CCOCC3)c3cnn(C4CCN(C(=O)OC)CC4)c3n2)cc1` [WYE-354]: > 10 µM and 6.23 µM.
Consider `C=CC(=O)Nc1cccc(Oc2nc(Nc3ccc(N4CCN(C)CC4)cc3)ncc2Cl)c1` [WZ3146], for which the “estimated IC50” value in the test with SUDHL6 parental is > 10 µM; in test [1], 4.09 µM.
On the same counts, the results for `C=CC(=O)Nc1cccc(Oc2nc(Nc3ccc(N4CCN(C)CC4)cc3OC)ncc2Cl)c1` [WZ4002] are > 10 µM and 4.2 µM.
On the same counts, the results for `CCC(=O)Nc1cccc(Oc2nc(Nc3ccc(N4CCN(C)CC4)cc3OC)ncc2Cl)c1` [WZ4003] are > 10 µM and 5.99 µM.
The matching figures for `C=CC(=O)Nc1cccc(Sc2nc(Nc3ccc(N4CCN(C)CC4)cc3)ncc2Cl)c1` [WZ8040]: 8.61 µM and 3.67 µM.
As to `CN1C(=O)c2sccc2N(C)c2nc(Nc3ccc(S(N)(=O)=O)cc3)ncc21` [XMU-MP-1], the “estimated IC50” value is 2.51 µM with SUDHL6 parental and 1.51 µM in test [1].
In the case of `OCCNCc1ccc(OCc2ccc(F)cc2)c(OCc2ccc(F)cc2)c1` [XRK3F2], the “estimated IC50” value in the test on SUDHL6 parental is > 10 µM; in test [1], 5.63 µM.
As for `COc1cc(O)c(CC=C(C)C)c(O)c1C(=O)/C=C/c1ccc(O)cc1` [Xanthohumol], the “estimated IC50” value in the test on SUDHL6 parental was 4.27 µM; in test [1], 2.49 µM.
On the same counts, the results for `COCC[n+]1c2c(n(Cc3cnccn3)c1C)C(=O)c1ccccc1C2=O` [YM155 (Sepantronium Bromide)] are 0.008 µM and 0.003 µM.
In the case of `FC(F)c1nc2ccccc2n1-c1nc(N2CCOCC2)nc(N2CCOCC2)n1` [ZSTK474], the “estimated IC50” value is > 10 µM with SUDHL6 parental and 4.79 µM in test [1].
The matching figures for `C[C@H](Nc1ncnc2[nH]cnc12)c1nc2ccc(F)cc2c(=O)n1-c1ccccc1` [acalisib (GS-9820)]: > 10 µM and 0.266 µM.
For the compound `COc1ccc(C(=O)N2c3ccccc3Sc3ccc(Cl)cc32)cc1` [iHAP1], the “estimated IC50” value with SUDHL6 parental was 7.31 µM; in test [1], 4.87 µM.
